In ChEMBL document CHEMBL1157539, “Thousands of chemical starting points for antimalarial lead identification” (Nature, 2010) one finds IFI data, which are given here for 88 compounds.

Over roughly 13,000 compounds, “IFI” has its median near 4; the highest 2% begin near 17. This is one part of the list.

This test in a line: GSK_TCMDC: Inhibition Frequency Index (IFI). The number of non-kinase HTS assays where a compound showed > 50 % inhibition, expressed as a percentage of the number of such assays in which the compound was tested (-0 is zero). The class given is functional.
As for `O=S(=O)(NCCCN1CCOCC1)c1ccc2nccc(Nc3ccc(Oc4ccccc4)cc3)c2c1`, the IFI is 1.46%.
The value for `Cc1nc(-c2nc(NCCc3ccncc3)ncc2-c2ccsc2)sc1C` was 4.44%.
The compound `CCN(CC)CCCC(C)N/C(=N\c1ccccc1Br)Nc1ccc(C#N)cc1O` (stereo not drawn) yielded an IFI of 0%.
The value for `O=C(Nc1cccc(CN2CCN(C(=O)c3cccc(F)c3)CC2)c1)c1ccco1` was 1.52%.
The value for `O=C(Nc1cccc(C(F)(F)F)c1)c1cccc(S(=O)(=O)NC2CCN(CC3CCCCC3)C2)c1` (stereo not drawn) was 10.2%.
For `O=C(Nc1cccc(OC2CCN(Cc3ccccc3)CC2)c1)c1ccc(Cl)c(Cl)c1`, the IFI amounted to 5.07%.
`COc1ccc2nc3cc(Cl)ccc3c(Nc3ccc(Oc4ccc(Nc5c6ccc(Cl)cc6nc6ccc(OC)cc56)cc4)cc3)c2c1` showed an IFI of 0.73%.
The value for `COc1ccccc1NC(=O)c1cc(C(=O)c2cc(Cl)ccc2O)cn(-c2ccccc2OC)c1=O` was 0.97%; that for `Cc1cccc2nc(-c3ccc(-c4cccc(CN5CCN(c6ccncc6)CC5)c4)s3)[nH]c12` was 15.1%; that for `COc1ccc2nccc(N/N=C/c3ccc([N+](=O)[O-])cc3)c2c1` was 0%.
Take `NC(=O)Nc1ccc2cn[nH]c2c1`: the IFI is -0%.
The value for `Cc1[nH]c(C)c(-c2ccc(Nc3ccc(C(F)(F)F)cn3)cc2)c(=O)c1Br` was 4.46%; that for `CC(C)(C)c1ccc(C(=O)NC2CCC(CCN3CCc4ccc(S(C)(=O)=O)cc4CC3)CC2)cc1C(F)(F)F` (stereo not drawn) was 21.6%; that for `CSc1ccc(CN2CCC(NC(=O)c3ccc(-c4cccc(C(F)(F)F)c4)s3)CC2)cc1` was 15.2%.
In turn, `COc1ccc(Br)cc1C1Nc2ccc3ccccc3c2C2=C1C(=O)CC(c1ccccc1)C2` (stereo not drawn) came in with an IFI of 2.21%.
Turning to `O=C(NCc1ccc(F)cc1)c1ccc(N2CCN(c3ccncc3)CC2)cn1`, the IFI is 3.45%.
The value for `Oc1ccc(-c2nc3c(N4CCN(Cc5ccccc5)CC4)cccc3n2C2CCNCC2)cc1` was 2.8%; that for `CCS[C@@H]1O[C@H](COC(=O)c2ccccc2)[C@H](OC(=O)c2ccccc2)[C@H](OC(=O)c2ccccc2)[C@H]1OC(=O)c1ccccc1` was 0.79%.
The value for `CCn1c(C2CCN(CCC3CCN(C(=O)/C=C/c4ccc(Cl)c(Cl)c4)CC3)CC2)nc2ccccc21` was 6.38%; that for `CCCOc1cc(NC(=O)Nc2ccnc3ccccc23)cc(OCCC)c1` was 5.15%; that for `CCCN(CCC)CCCNc1ccc(C(=O)Nc2ccc(C(C)C)cc2)cc1[N+](=O)[O-]` was 3.65%.
As for `Oc1cccc(-c2nc(-c3ccccc3)c(-c3ccc(Oc4ccc(-c5[nH]c(-c6cccc(O)c6)nc5-c5ccccc5)cc4)cc3)[nH]2)c1`, the IFI came to 5.3%.
For `COc1cc2nc(N3CCC(CNC(=O)c4ccc(-c5ccc(C#N)cc5C)cc4)CC3)nc(N)c2cc1OC`, the IFI came to 6.31%.
The value for `Nc1nc(N)c2c(Oc3cccc4ccccc34)cccc2n1` was 10.6%.
`COc1ccc(CCN(C)CCCCNC(=O)c2ccc(NC(=O)c3ccc(Cl)cc3)cc2)c(OC)c1` yielded an IFI of 5.17%.
For the compound `COc1ccc(Nc2nccc(N3CCC(NC(=O)Nc4cc(C)ccc4C)C3)n2)cc1` (stereo not drawn), the IFI amounted to 0%.
The value for `COc1cc2ncnc(NCCc3ccccc3Cl)c2cc1OC` was 0.76%; that for `C[C@H]1CN(Cc2cccc(-c3cc(CNC(=O)c4cccc(CN5CCN(C/C=C/c6ccccc6)CC5)c4)ccc3F)c2)CCN1` was 13.9%.
The value for `O=C1Nc2cccc3c2C1(CCCCN1CCC(c2c[nH]c4cc(C(F)(F)F)ccc24)CC1)CCC3` (stereo not drawn) was 11.5%.
The value for `N#Cc1cccc(CN(Cc2ccc(Cl)c(Cl)c2)S(=O)(=O)c2cccc([N+](=O)[O-])c2)c1` was 0.72%; that for `COc1cccc(-n2ncc3c(N/N=C/c4ccc(CN(C)CCN(C)C)cc4)ncnc32)c1` was 10.1%; that for `Nc1nccc2ccc(-c3ccc(Oc4ccccc4)cc3)cc12` was 20.7%.
`COC(=O)c1c(NC(=O)c2cccc(C(F)(F)F)c2)sc2c1CCN(Cc1ccccc1)C2` came in with an IFI of 4.13%.
The value for `Oc1ccc(-c2cncc(NCc3ccc(F)c(F)c3)c2)cc1` was 6.06%.
Compound `Cc1cccc(Cn2nc(-c3ccccc3)c(N3CCCCC3)cc2=O)c1` registered an IFI of 1.28%.
With `COc1ccc2nccc([C@@H](O)CN3CCC(NC(=O)c4ccc(C5(C(F)(F)F)N=N5)cc4)CC3)c2c1`, the IFI was 2.9%.
Take `C=CCN1C(=O)C(=Cc2cc(Br)ccc2O)SC1=Nc1ccccc1`: the IFI worked out at 5%.
The value for `CCN(CCCN1CCCCC1)c1cc(C)nc(Nc2ccc(C)cc2Br)n1` was 2.56%.
The value for `COc1ccc2c(c1)CCN(CCN1CCC(CNC(=O)c3ccc(-c4ccc(C#N)cc4)cc3)CC1)C2` was 7.21%; that for `O=c1cc(-c2ccc3ccccc3c2)[nH]c2ccccc12` was 1.82%.
`Cc1[nH]c(C)c(-c2ccc(CCc3ccc(C(F)(F)F)cc3)nc2)c(=O)c1Cl` came in with an IFI of 4.46%.
The value for `Oc1cccc(Nc2ccnc3cc(-c4ccccn4)ccc23)c1` was 8.16%; that for `COCCNCc1ncsc1-c1ccc2c(Nc3cc(O)c(Cl)cc3F)ccnc2c1` was 5.26%; that for `CCN(CC)CCN(Cc1ccc(-c2ccc(C(F)(F)F)cc2)cc1)C(=O)Cn1c(CCc2cc(F)ccc2F)nc(=O)c2ccccc21` was 5.59%.
For the compound `COc1cc(Nc2ccnc3cc(-c4ccncc4)ccc23)cc(OC)c1OC`, the IFI was determined as 3.68%.
Consider `CCCCCN1CCC(NS(=O)(=O)c2cccc(C(=O)Nc3ccc(C(F)(F)F)cc3)c2)C1` (stereo not drawn), for which the IFI stood at 12.9%.
The value for `CCN(CC)CCN1C(=O)c2oc3ccc(F)cc3c(=O)c2C1c1cccc(Cl)c1` (stereo not drawn) was 3.92%; that for `COc1ccc2nccc([C@@H](O)CN3CCC(NCc4cc5cccc(O)c5c(=O)[nH]4)CC3)c2c1` was 0.73%.
The compound `Cc1nc(C)c(-c2ccc(Oc3ccc(Cl)cc3Cl)cc2)c(O)c1Br` registered an IFI of 1.52%.
The value for `COc1cc(C2C(Oc3ccccc3)C(=O)N2Cc2ccc(F)cc2)cc(OC)c1OC` (stereo not drawn) was 1.19%; that for `c1ccc(-c2cc(NCCCCCCCCNc3cc(-c4ccccc4)nc4ccccc34)c3ccccc3n2)cc1` was 10%.
Consider `NCc1ccc(Nc2nccc(Nc3ccc(-c4ccccc4)cc3)n2)cc1`, for which the IFI came to 13.3%.
The value for `O=C(/C=C/c1ccc(Cl)c(Cl)c1)NCCCCCN1CCC(NC(=O)Nc2ccccc2Cl)CC1` was 7.28%.
As to `O=C(c1cccc(-c2noc(C(F)(F)F)n2)c1)N1CCN(c2nsc3ccccc23)CC1`, the IFI was 2.94%.
Take `Cc1cccc2nc(-c3cccc(-c4cccc(NC(=O)c5c[nH]cn5)c4)c3)[nH]c12`: the IFI was 3.77%.
The value for `COc1ccc(NC(=O)c2cc(NC(=O)C3(N)CC3)c(=O)n(Cc3ccc(C(N)=O)cc3)c2)cc1` was 5%; that for `COc1cccc(CN2CCC(C(=O)Nc3ccc(-c4nc5ccccc5[nH]4)cc3)CC2)c1` was -0%; that for `CN(CCCCCNC(=O)/C=C/c1ccc(Cl)c(Cl)c1)CCc1c[nH]c2ccccc12` was 9.09%.
The value for `C#CCNCc1ccc(-c2cccc(-c3nc4cccc(C)c4[nH]3)c2)cc1` was 3.96%.
`NC(=O)C1CCN(Cc2cccc(-c3cccc(-c4nc5cc(F)ccc5[nH]4)c3)c2)CC1` registered an IFI of 0.98%.
The value for `OCCN1CCN(c2nc(Nc3cccc(F)c3)c3cnn(-c4ccccc4)c3n2)CC1` was 10.9%; that for `CC(=O)Nc1ccc(-c2nc3ccc(-c4nc5ccc(NC(C)=O)cc5[nH]4)cc3[nH]2)cc1` was 0.74%; that for `Nc1nccc2ccc(-c3ccsc3)cc12` was 10.1%.
The value for `CCOC(=O)C1CCN(CCCNC(=O)/C(=C/C=C/c2cc3cc(Cl)c(Cl)cc3[nH]2)OC)CC1` was 8.46%; that for `COc1ccc(C(C(=O)NC2CCN(C[C@H](O)c3ccnc4ccc(OC)cc34)CC2)N2CCN(c3ccc(F)cc3)CC2)cc1` (stereo partly drawn) was 0%.
The value for `O=C(C=Cc1ccc(F)cc1)NC1CCC(CCN2CCc3ccc(-c4cnccn4)cc3CC2)CC1` (stereo not drawn) was 6.87%.
`CN(C)CCOc1cc(O)c2c(c1)OC(C)(C)C=C2c1cccs1` came in with an IFI of 0.72%.
The value for `Cc1cc(C=C(P(=O)(OC(C)C)OC(C)C)P(=O)(OC(C)C)OC(C)C)c2ccccc2c1O` was 4.72%; that for `Cc1cc(N[C@@H](Cc2ccccc2)C(=O)NC2CCCC2)nc(Nc2ccccc2)n1` was 7.32%; that for `CCCCc1ccc(NC(=O)Nc2cccc(CCNCc3ccccc3)c2)cc1` was 7.75%.
Turning to `N#Cc1cncc(-c2nc3c(N4CCC(Cc5ccccc5)CC4)cccc3n2C2CCNC2)c1` (stereo not drawn), the IFI amounted to 2.8%.
The value for `O=C(Nc1cc(=O)[nH]c2nc(-c3ccccc3)nn12)C1CCCCC1` was -0%; that for `COCCCNC(=O)c1ccc(O)c(-c2cc(Cl)cc(Cl)c2)c1` was 0.74%.
With `CC(C)c1ccc(NC(=O)c2ccc(NCCCN(C)Cc3ccccc3)c([N+](=O)[O-])c2)cc1`, the IFI turned out to be 2.96%.
The value for `CN1CCN(CCCN(Cc2cccc(-c3cccc(CNCc4ccc5c(c4)OCO5)c3)c2)C(=O)CCC2CCCC2)CC1` was 10.9%; that for `CCOc1cc(C)ccc1C1CCN(CCCCNC(=O)c2cnc(-c3ccc(C(F)(F)F)cc3)[nH]2)CC1` was 0.71%; that for `COc1ccc(Cn2c(Nc3cccc(C(F)(F)F)c3)nc3cc(C(=O)NCCN4CCCC4)ccc32)cc1Cl` was 4.44%.
As for `O=C(NC1CCN(c2ncc(C(F)(F)F)cc2Cl)CC1)c1cccs1`, the IFI was -0%.
For `CS(=O)(=O)c1ccc(CNCc2ccc(-c3ccc(-c4nc5cc(C(F)(F)F)ccc5[nH]4)cc3)cc2)cc1`, the IFI amounted to 6.8%.
The value for `COc1ccc(CNCCCCCCNCCc2ccc(Cl)cc2)cc1OC` was 4.07%; that for `Nc1cccc(CNCc2ccc(-c3ccc(-c4nc5cc(F)ccc5[nH]4)s3)cc2)c1` was 8.57%.
The value for `S=C(Nc1ccc(Cl)cc1)Nc1ccc(Nc2ccccc2)cc1` was 8.15%; that for `CCCN(CCC)CCCOc1ccc(C(=O)c2c(-c3ccc(OCCCN(CCC)CCC)cc3)oc3ccc(Cl)cc23)cc1` was 16.9%.
With `Cc1ccnc(-n2c(C)cc(C=C3SC(=Nc4ccccc4)N(Cc4ccco4)C3=O)c2C)c1`, the IFI is 3.65%.
Turning to `O=C(/C=C/c1ccc(Cl)c(Cl)c1)NCCCCCN1CCCC(C(=O)Nc2ccc(Cl)cc2)C1` (stereo not drawn), the IFI is 12.3%.
Consider `CCNc1cc(C(=O)N[C@@H](Cc2ccccc2)[C@H](O)CN[C@@H](C)c2ccccc2)cc(N2CCCC2=O)c1`, for which the IFI is -0%.
For the compound `COc1cc2nc(N3CCC(CNC(=O)c4ccc(-c5ccc(O)cc5)cc4)CC3)nc(N)c2cc1OC`, the IFI worked out at 5%.
The value for `Nc1ncc(-c2ccccc2)cc1-c1nc2cc(Cl)c(F)cc2[nH]1` was 11.6%.
